Laboratory results published in the supplement of paper PMC8728848.
The list shows a part of the results.

Experiments:
Assay in all cases: glycan array binding signal (z-score within array); higher = stronger binding
Settings in all cases: glycan notation: IUPAC condensed, linker removed
[1] = molecular target: Fuc(a1-2)Gal(b1-4)GlcNAc(b1-3)Gal(b1-4)GlcNAc(b1-3)Gal(b1-4)GlcNAc
Outline: (§1)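 The Consortium for Functional Glycomics database supplied 3228 glycan arrays, of which those lacking an available protein sequence were dropped. The binding signal, a within-array Z-score, was averaged across arrays of the same protein sequence and across linkers. Negative scores can be read as non-binding.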

[2] = molecular target: Fuc(a1-2)Gal(b1-4)GlcNAc(b1-3)GalNAc
Outline: as §1

[3] = molecular target: Fuc(a1-2)Gal(b1-4)GlcNAc(b1-3)[Fuc(a1-2)Gal(b1-4)GlcNAc(b1-6)]GalNAc
Outline: as §1

[4] = molecular target: Fuc(a1-2)Gal(b1-4)GlcNAc(b1-3)[Fuc(a1-3)[Gal(b1-4)]GlcNAc(b1-6)]Gal(b1-4)Glc
Outline: as §1

[5] = molecular target: Fuc(a1-2)Gal(b1-4)GlcNAc(b1-6)GalNAc
Outline: as §1

[6] = molecular target: Fuc(a1-2)Gal(b1-4)GlcNAc6S
Outline: as §1

[7] = molecular target: Fuc(a1-2)Gal(b1-4)[Fuc(a1-3)]GlcNAc
Outline: as §1

[8] = molecular target: Fuc(a1-2)Gal(b1-4)[Fuc(a1-3)]GlcNAc(b1-2)Man(a1-3)[Fuc(a1-2)Gal(b1-4)[Fuc(a1-3)]GlcNAc(b1-2)Man(a1-6)]Man(b1-4)GlcNAc(b1-4)[Fuc(a1-6)]GlcNAc
Outline: as §1

[9] = molecular target: Fuc(a1-2)Gal(b1-4)[Fuc(a1-3)]GlcNAc(b1-2)[Fuc(a1-2)Gal(b1-4)[Fuc(a1-3)]GlcNAc(b1-4)]Man(a1-3)[Fuc(a1-2)Gal(b1-4)[Fuc(a1-3)]GlcNAc(b1-2)Man(a1-6)]Man(b1-4)GlcNAc(b1-4)GlcNAc
Outline: as §1

[10] = molecular target: Fuc(a1-2)Gal(b1-4)[Fuc(a1-3)]GlcNAc(b1-3)Gal(b1-4)[Fuc(a1-3)]GlcNAc
Outline: as §1

[11] = molecular target: Fuc(a1-2)Gal(b1-4)[Fuc(a1-3)]GlcNAc(b1-3)Gal(b1-4)[Fuc(a1-3)]GlcNAc(b1-3)Gal(b1-4)[Fuc(a1-3)]GlcNAc
Outline: as §1

[12] = molecular target: Fuc(a1-2)Gal(b1-4)[Fuc(a1-3)]GlcNAc(b1-3)GalNAc
Outline: as §1

[13] = molecular target: Fuc(a1-2)Gal(b1-4)[Fuc(a1-3)]GlcNAc(b1-3)[Neu5Ac(a2-6)Gal(b1-4)GlcNAc(b1-6)]Gal(b1-4)Glc
Outline: as §1

[14] = molecular target: Fuc(a1-2)Gal3S(b1-4)GlcNAc
Outline: as §1

[15] = molecular target: Fuc(a1-2)Gal6S(b1-3)GlcNAc
Outline: as §1

[16] = molecular target: Fuc(a1-2)Gal6S(b1-3)GlcNAc6S
Outline: as §1

Fuc(a1-2)Gal6S(b1-4)Glc = molecular target: Fuc(a1-2)Gal6S(b1-4)Glc
Outline: as §1

[17] = molecular target: Fuc(a1-2)Gal6S(b1-4)Glc6S
Outline: as §1

Fuc(a1-2)[Gal(a1-3)]Gal = molecular target: Fuc(a1-2)[Gal(a1-3)]Gal
Outline: as §1

[18] = molecular target: Fuc(a1-2)[Gal(a1-3)]Gal(b1-3)GalNAc
Outline: as §1

[19] = molecular target: Fuc(a1-2)[Gal(a1-3)]Gal(b1-3)GalNAc(b1-3)Gal(a1-4)Gal(b1-4)Glc
Outline: as §1

[20] = molecular target: Fuc(a1-2)[Gal(a1-3)]Gal(b1-3)GlcNAc
Outline: as §1

[21] = molecular target: Fuc(a1-2)[Gal(a1-3)]Gal(b1-3)GlcNAc(b1-2)Man(a1-3)[Fuc(a1-2)[Gal(a1-3)]Gal(b1-3)GlcNAc(b1-2)Man(a1-6)]Man(b1-4)GlcNAc(b1-4)GlcNAc
Outline: as §1

[22] = molecular target: Fuc(a1-2)[Gal(a1-3)]Gal(b1-3)GlcNAc(b1-2)Man(a1-3)[Fuc(a1-2)[Gal(a1-3)]Gal(b1-3)GlcNAc(b1-2)Man(a1-6)]Man(b1-4)GlcNAc(b1-4)[Fuc(a1-6)]GlcNAc
Outline: as §1

[23] = molecular target: Fuc(a1-2)[Gal(a1-3)]Gal(b1-3)GlcNAc(b1-3)GalNAc
Outline: as §1

[24] = molecular target: Fuc(a1-2)[Gal(a1-3)]Gal(b1-3)GlcNAc(b1-6)GalNAc
Outline: as §1

[25] = molecular target: Fuc(a1-2)[Gal(a1-3)]Gal(b1-4)Glc
Outline: as §1

[26] = molecular target: Fuc(a1-2)[Gal(a1-3)]Gal(b1-4)GlcNAc
Outline: as §1

[27] = molecular target: Fuc(a1-2)[Gal(a1-3)]Gal(b1-4)GlcNAc(b1-2)Man
Outline: as §1

[28] = molecular target: Fuc(a1-2)[Gal(a1-3)]Gal(b1-4)GlcNAc(b1-2)Man(a1-3)[Fuc(a1-2)[Gal(a1-3)]Gal(b1-4)GlcNAc(b1-2)Man(a1-6)]Man(b1-4)GlcNAc(b1-4)GlcNAc
Outline: as §1

B1: SP16665A-bot-344-23-344 (Bacteroides ovatus) (protein)
chain: SDNEFPDFDYQTVYFANQYGLRTIELGESEFVDNTLDNQHKMVIKAAWGGGYTNRNNVVINFKVDESLCDNLYFKDTDQPLVPMPASYYTLASDRIAIPKGQIMAGVEVQLTDDFFADEKSISENYVIPLLMTNVQGADSILQGKPVVENPVLTNAGDWSILPQNFVLYAVKYVNPWHGEYLRRGIDHATVAGTSKDIIRHEQFVENDEVVNISTKSMKDNLLTLKTKDESGKDISYTVRLSFAEDGSCTVHSGSQNVVVSGSGKFVSKGEKNSLGGKDRNAIYLDYTVNLTDNNIQLATKDTLVLRTRNVYGGKSLEVVRK
[1]
  glycan array binding signal (z-score): -0.419
[2]
  glycan array binding signal (z-score): 0.02
[3]
  glycan array binding signal (z-score): 0.349
[4]
  glycan array binding signal (z-score): -0.168
[5]
  glycan array binding signal (z-score): -0.072
[6]
  glycan array binding signal (z-score): -0.416
[7]
  glycan array binding signal (z-score): -0.007
[8]
  glycan array binding signal (z-score): 0.494
[9]
  glycan array binding signal (z-score): -0.05
[10]
  glycan array binding signal (z-score): 0.357
[11]
  glycan array binding signal (z-score): -0.231
[12]
  glycan array binding signal (z-score): 0.687
[13]
  glycan array binding signal (z-score): 0.039
[14]
  glycan array binding signal (z-score): 0.29
[15]
  glycan array binding signal (z-score): -0.017
[16]
  glycan array binding signal (z-score): 0.553
Fuc(a1-2)Gal6S(b1-4)Glc
  glycan array binding signal (z-score): 0.254
[17]
  glycan array binding signal (z-score): 0.025
Fuc(a1-2)[Gal(a1-3)]Gal
  glycan array binding signal (z-score): -0.093
[18]
  glycan array binding signal (z-score): -0.051
[19]
  glycan array binding signal (z-score): -0.254
[20]
  glycan array binding signal (z-score): -0.034
[21]
  glycan array binding signal (z-score): -0.641
[22]
  glycan array binding signal (z-score): -0.333
[23]
  glycan array binding signal (z-score): -0.457
[24]
  glycan array binding signal (z-score): 0.014
[25]
  glycan array binding signal (z-score): -0.257
[26]
  glycan array binding signal (z-score): -0.423
[27]
  glycan array binding signal (z-score): 0.239
[28]
  glycan array binding signal (z-score): 1.04
